# Out of some 310,000 compounds screened, about 2,200 (0.71%) showed an effect of 50% or more. Effects have a minus sign here. Some of the results follow.
# Target: human ether-à-go-go-related gene (hERG) potassium channel (human, UniProt Q12809)
# Experiment: primary screen, population patch clamp on CHO cells stably expressing hERG
# Chain of human ether-à-go-go-related gene (hERG) potassium channel (Q12809 whole entry, looked up): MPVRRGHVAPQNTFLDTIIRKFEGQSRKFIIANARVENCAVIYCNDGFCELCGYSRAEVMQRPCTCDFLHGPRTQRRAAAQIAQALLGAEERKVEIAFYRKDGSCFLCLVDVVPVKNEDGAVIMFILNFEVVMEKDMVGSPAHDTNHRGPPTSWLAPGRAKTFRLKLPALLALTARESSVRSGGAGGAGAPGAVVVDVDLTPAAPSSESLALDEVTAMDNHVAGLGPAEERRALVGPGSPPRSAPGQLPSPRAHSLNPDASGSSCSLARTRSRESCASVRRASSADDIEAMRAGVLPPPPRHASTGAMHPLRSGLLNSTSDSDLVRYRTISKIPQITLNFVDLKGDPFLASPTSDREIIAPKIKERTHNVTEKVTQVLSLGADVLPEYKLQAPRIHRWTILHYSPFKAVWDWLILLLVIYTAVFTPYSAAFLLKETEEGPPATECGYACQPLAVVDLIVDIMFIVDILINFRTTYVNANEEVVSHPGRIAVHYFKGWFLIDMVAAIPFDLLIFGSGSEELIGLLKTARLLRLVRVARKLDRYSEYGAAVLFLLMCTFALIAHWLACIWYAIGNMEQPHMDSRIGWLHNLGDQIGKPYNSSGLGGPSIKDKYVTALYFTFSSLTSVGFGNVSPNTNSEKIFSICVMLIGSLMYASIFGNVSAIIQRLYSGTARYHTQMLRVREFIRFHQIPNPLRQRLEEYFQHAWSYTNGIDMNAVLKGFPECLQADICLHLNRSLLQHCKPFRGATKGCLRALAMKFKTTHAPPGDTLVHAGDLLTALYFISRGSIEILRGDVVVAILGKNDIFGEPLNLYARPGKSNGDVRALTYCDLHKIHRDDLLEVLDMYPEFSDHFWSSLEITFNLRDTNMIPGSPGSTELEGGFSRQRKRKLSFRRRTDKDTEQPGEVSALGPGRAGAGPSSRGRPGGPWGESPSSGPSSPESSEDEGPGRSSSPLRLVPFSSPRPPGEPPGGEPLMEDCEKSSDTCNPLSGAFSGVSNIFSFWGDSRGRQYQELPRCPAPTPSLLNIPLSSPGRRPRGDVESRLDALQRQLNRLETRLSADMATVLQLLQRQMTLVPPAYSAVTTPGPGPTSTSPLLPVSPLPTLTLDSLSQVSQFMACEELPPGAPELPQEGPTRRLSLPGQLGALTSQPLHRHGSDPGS
row,Structure (SMILES),"hERG current change (%, negative = inhibition) at 1uM [%]"
1,FC(F)(F)c1nc(N2CCN(c3ccccc3)CC2)nc2c1CCCCC2,7.78
2,Cc1ccc2nc(-c3ccc(NS(=O)(=O)c4ccc(F)c(F)c4)cc3)sc2c1,12.9
3,CCOC(OCC)c1ccc(/C=C\c2nccc(N)n2)cc1,11.4
4,CCOc1ccc(CN(C)C(=O)CNC(=O)c2ccccc2)cc1,13.3
5,O=[N+]([O-])c1cccc(-c2nnn(C34CC5CC(CC(C5)C3)C4)n2)c1,-3.57
6,COC(=O)C(NC(C)=O)(Nc1cc(C)ccn1)C(F)(F)F (stereo not shown),12.6
7,CCN1CCN(c2cc(=O)n(Cc3ccc(F)cc3)c(=O)[nH]2)CC1,11.8
8,O=C(NCc1ccccc1)C1=C[C@@H](c2ccccc2)C[C@@H](OCc2ccc(CO)cc2)O1,11.8
9,Cc1ccc(C(=O)NC(C)C(c2cccs2)N2CCCC2)s1 (stereo not shown),15
10,COc1ccccc1/C=N/NC(=O)c1ccc(Br)cc1,5.58
11,CCOC(=O)c1ccc(NC(=O)NCc2ccc(OC)cc2)cc1,4.73
12,CCOC(=O)C1=C2c3ccc4ccccc4c3CC(C)(C)N2C(=O)C1=O,1.39
13,CC12CCC(C(=O)NCCN3CCCCC3)(CC1=O)C2(C)C (stereo not shown),-2.33
14,COc1ccc(CC(=O)OCC(=O)Nc2cccnc2Cl)cc1OC,2.52
15,N#Cc1c2n(c3c(=S)nc[nH]c13)CCCCC2,11.1
16,N#C/C(=C\c1ccc(OCc2ccc(F)cc2)cc1)C(=O)Nc1cccc(C(=O)O)c1,-0.315
17,COc1cc(OC)nc(Oc2ccccc2C(=O)Oc2cccc(C)c2)n1,13.7
18,COc1cc2cc(C(c3nnnn3C3CCCC3)N(C)C3CCCCC3)c(=O)[nH]c2cc1OC (stereo not shown),-1.16
19,Cn1cnc([N+](=O)[O-])c1S(=O)(=O)c1cccc(Cl)c1,8.67
20,Cc1cc(C)cc(N(CC(=O)N2CCOCC2)S(=O)(=O)c2ccccc2)c1,-25.8
21,O=C(CSc1nnc(NC(=O)c2cc(Br)ccc2Cl)s1)NCC1CCCO1 (stereo not shown),8.35
22,CC(C)C(=O)Nc1ccc(C(=O)CSc2nnc(C3CC3)n2C2CC2)cc1,11.7
23,NC(=O)c1nsc(C(=O)N(c2ccc(F)cc2)C(C(=O)NC2CCCC2)c2ccncc2)c1N (stereo not shown),0.0133

row,Structure (SMILES),"hERG current change (%, negative = inhibition) at 1uM [%]"
1,COC(=O)c1cc(-n2cccc2)ccc1N1CCOCC1,9.85
2,Oc1ccc(/C=N/Nc2nccnc2Cl)cc1,7.53
3,CC1Cc2ccccc2N1C(=O)CSc1nnc(-c2ccc(S(=O)(=O)N3CCOCC3)cc2)n1C (stereo not shown),7.38
4,CCOC(=O)c1sc(NC(=O)CCN2CCC(C)CC2)c(C(=O)OCC)c1C,13.9
5,CCN(CC)S(=O)(=O)c1ccc(OC)c(-n2cnnn2)c1,13.9
6,CCn1c(O)c(C=NCc2ccccc2)sc1=S,10.6
7,CSc1ccc(S(=O)(=O)Nc2ccc(OCC(=O)N3CCOCC3)cc2)cc1,18.9
8,COc1ccccc1NC(=S)NC1CCCCCCCCCCC1,13.2
9,CC(C)CC(=O)NN1CCCCC1,13
10,CN1CCN(c2ccc([N+](=O)[O-])cc2C(=O)N2CCOCC2)CC1,10.1
11,CCOc1c(C)cc(S(=O)(=O)NCc2cccnc2)c(C)c1C,10.8
12,Cc1cccc(C)c1OCc1cc(C(=O)N2CCC(c3ccncc3)CC2)no1,-6.14
13,CCc1ccc(S(=O)(=O)NCc2csc(C)n2)s1,6.47
14,O=C(COC(=O)C1CC(=O)N(Cc2ccco2)C1)c1ccc(OC(=O)c2ccccc2)cc1 (stereo not shown),3.52
15,COC(=O)c1c(NC(=O)COC(=O)CNC(=O)c2ccco2)sc(C)c1C,13
16,Cc1ccc(Nc2c3c(nc4ccccc24)CCC3)cc1.Cl,-57.7
17,C=CCc1cc(Cl)ccc1OCCCNC(C)C.O=C(O)C(=O)O,-7.92
18,CC(C)(C)c1cc(CN(CCO)CCO)cc(C(C)(C)C)c1O,-1.48
19,O=C(NC(=S)N1CCCCCC1)c1ccccc1Cl,3
20,Cc1nn(Cc2ccc(F)cc2)c2sc(C(=O)Nc3nccs3)cc12,12.8
21,C/C=C(/C)C(=O)Nc1cccc(C2=NOC3(C2)C[C@H](C(N)=O)N(C(=O)COc2ccc(Cl)cc2)C3)c1 (stereo partly shown),6.7
22,O=C(O)c1ccccc1NS(=O)(=O)c1cccc(C(F)(F)F)c1,3.23
23,Cc1ccc(NC(=O)CCc2c(C)nn(-c3ccc(N4CCOCC4)nn3)c2C)c(C)c1,15.3

row,Structure (SMILES),"hERG current change (%, negative = inhibition) at 1uM [%]"
1,CCOC(=O)CC(=O)COc1nc2cc3c(nc2o1)CCCC3,-0.38
2,CCOc1ccc(NC(=O)/C=C/c2ccccc2)c([N+](=O)[O-])c1,7.61
3,CCCN1C(=O)C(O)(C2COC(C)(C)CC2=O)c2ccccc21 (stereo not shown),6.61
4,Cc1ccc(S(=O)(=O)Oc2ccc(/C=N/N=C3/NC(=O)C(CC(=O)O)S3)cc2)cc1[N+](=O)[O-] (stereo not shown),22.9
5,Cc1c(Cl)cccc1-n1nnnc1-c1cccs1,2.84
6,C=CCn1c(O)c(C(C)=NCCCN(C)C)c(=O)[nH]c1=O,10.3
7,CCOC(=O)C1(Cc2cccc(Cl)c2)CCCN(C(=O)c2ccc(COC)s2)C1 (stereo not shown),-2.58
8,Cc1nccn1Cc1cccc2ccccc12,11.4
9,N#Cc1ccc(COC(=O)c2cnc(Cl)c(Cl)c2)cc1,13.9
10,Cc1ccc(NC(=O)NCCCN2CCCC2=O)cc1,2.18
11,Cc1ccc(NC(=O)CSCC(=O)Nc2cccc3ncccc23)cc1,4.18
12,COc1ccccc1NC(=O)CSCc1ccc([N+](=O)[O-])cc1,1.99
13,O=C(/C=C/NCC(=O)c1ccccc1)c1ccc(Br)cc1,15.8
14,O=C(NNC(=O)C1CC=CCC1)c1ccccc1Br (stereo not shown),10.4
15,CN(C)C(CNC(=O)c1ccc2[nH]c(=O)c(=O)[nH]c2c1)c1ccco1 (stereo not shown),0.262
16,CC1Cc2ccccc2N1S(=O)(=O)c1cccc(C(=O)c2nccn2C)c1 (stereo not shown),6.7
17,Cc1n[nH]c(=O)nc1N/N=C/c1ccco1,12
18,O=C(O)CSCC(=O)NCc1c(Cl)cccc1Oc1ccccc1,12.7
19,O=C(CNC1CCCCCC1)Nc1ccc(N2CCCC2)cc1.O=C(O)C(=O)O,6.87
20,c1ccc(C2Nc3ccccc3-c3nc4ccccc4n32)nc1 (stereo not shown),15.1
21,O=C1c2cccc3cccc(c23)C(=O)N1CCCN(C(=O)c1cccs1)c1cccc(F)c1,8.98
22,COc1cc2ncnc(NCc3cc(F)ccc3F)c2cc1OC,-0.534
23,Cc1cccc(C)c1NC(=O)Cn1nc(-c2ccc(Cl)s2)ccc1=O,12.1

row,Structure (SMILES),"hERG current change (%, negative = inhibition) at 1uM [%]"
1,COc1ccccc1CNC(=O)Nc1cccs1,12.1
2,Cc1ccc(NC(=O)CN(C)C(=O)c2cccc(Br)c2)cc1,4.61
3,Cc1ccc(CSc2nnc(-c3cnccn3)n2C)cc1,14.7
4,CC1CCc2c(sc3ncnc(NCCCOC(C)C)c23)C1.Cl (stereo not shown),2.07
5,Cc1ccc(Cl)cc1N1CCN(C(=O)Cc2c(C(=O)O)[nH]c3ccc(Cl)cc23)CC1,22.4
6,Cc1ccc(-c2cc(N)n3nc(-c4ccc(C)cc4)cc3n2)cc1,13.2
7,C=CCOC(=O)C1=C(C)Nc2[nH]c(=O)[nH]c(=O)c2C1c1ccccc1 (stereo not shown),13.1
8,COc1ccccc1C(=O)ON=C1c2ccccc2-c2ccccc21,10.5
9,Cc1ccc2oc(=O)c3cc(C(=O)NCCN4CCN(C)CC4)sc3c2c1,2.58
10,Cl.OC(COc1ccc2c(c1)OCO2)CN1CCCC1 (stereo not shown),5.2
11,COc1ccc(-n2c(COc3cccc(C)c3)nnc2SCC(=O)NCc2ccco2)cc1,-5.41
12,CC1CN(c2nc(-c3ccccc3)nnc2-c2ccccc2)CC(C)O1 (stereo not shown),5.05
13,CCc1nn(CC(=O)NCCCc2ccccc2)c(=O)c2cc3c(OC)cccc3n12,12.4
14,CC(C)c1nc2cc(Cl)ccc2n(Cc2ccccc2)c1=O,14.7
15,CN(C)CCCNC(=O)Cc1ccc(Br)cc1,7.19
16,O=[N+]([O-])c1c(NCCO)cc(N2CCC3(CC2)OCCO3)c2nonc12,-4.1
17,Cc1ccc(CNC(=O)C(=O)NCC2OCCN2S(=O)(=O)c2ccc3c(c2)OCCO3)cc1 (stereo not shown),8.88
18,CCc1cc(C(=O)O)c(NC(=O)c2cc(OC)c(OC)c(OC)c2)s1,16.9
19,O=C1NC(=O)/C(=C\c2ccc(Br)o2)S1,11.2
20,CC(C(=O)NCCCc1ccccc1)c1ccc([N+](=O)[O-])cc1 (stereo not shown),-8.85
21,CN(C)C(=O)C[n+]1ccc(/C=N/O)cc1,9.82
22,O=C(CN1CCN(S(=O)(=O)/C=C/c2ccccc2)CC1)NC(=O)NCc1ccco1,-23.8

# Source: paper PMC4336329 (PLoS ONE, 2015)
